Some of the results follow. Values come from read counts of a selection and are noisy.
Legend:
Test in all cases: mean normalised NGS count of phage-displayed peptide after selection on bait (% of reads); baits are purified protein domains named by gene / domain / UniProt id / residues; peptides come from disordered regions of human proteins; higher = stronger enrichment / binding
[1] = target: GABARAPL1_ATG8__Q9H0R8_2_115
[2] = target: MAP1LC3B_ATG8__Q9GZQ8_2_119
[3] = target: T1, G3BP2_NTF2_1_Q9UN86_1_139; settings: replicate selections in which the peptide was seen: 6
T1 chain: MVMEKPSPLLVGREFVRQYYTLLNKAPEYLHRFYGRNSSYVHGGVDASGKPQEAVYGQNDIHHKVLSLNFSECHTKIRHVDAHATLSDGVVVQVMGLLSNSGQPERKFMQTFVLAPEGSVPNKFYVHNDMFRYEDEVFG

MSN_FERM_1_P26038_1_322 = target: T2, MSN_FERM_1_P26038_1_322; settings: replicate selections in which the peptide was seen: 3
T2 chain: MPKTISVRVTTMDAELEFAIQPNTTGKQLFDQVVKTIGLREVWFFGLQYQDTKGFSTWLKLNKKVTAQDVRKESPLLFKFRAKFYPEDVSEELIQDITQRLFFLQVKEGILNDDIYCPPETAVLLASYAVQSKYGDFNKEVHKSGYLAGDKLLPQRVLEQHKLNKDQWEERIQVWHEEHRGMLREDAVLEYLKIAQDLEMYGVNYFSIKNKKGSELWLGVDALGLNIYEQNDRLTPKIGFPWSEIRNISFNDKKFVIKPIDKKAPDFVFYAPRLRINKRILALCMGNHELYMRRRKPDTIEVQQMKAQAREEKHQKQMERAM

[4] = target: GABARAPL2_ATG8__P60520_2_115
[5] = replicate selections in which the peptide was seen: 4
[6] = replicate selections in which the peptide was seen: 2
[7] = replicate selections in which the peptide was seen: 3
[8] = replicate selections in which the peptide was seen: 5
[9] = replicate selections in which the peptide was seen: 6

GABARAPL2_ATG8__P60520_2_115, sequence (chain, as listed by the source): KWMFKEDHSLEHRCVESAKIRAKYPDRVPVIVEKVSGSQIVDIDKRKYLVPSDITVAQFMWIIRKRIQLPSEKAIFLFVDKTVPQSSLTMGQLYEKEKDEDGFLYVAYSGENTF

PPAPLAHSDDYVHISL [TSC1 396-411 wt]
mean normalised NGS count [1, 5]: 0.0058 | mean normalised NGS count [2, 6]: 0.0277

ISMGYDLGEAEFARIM [ACTN2 783-798 wt]
mean normalised NGS count [3]: 0.584 | mean normalised NGS count (MSN_FERM_1_P26038_1_322): 0.194

PFVYGDIPPGMVSEPL [SCN9A 60-75 mut Q15858.I62V]
mean normalised NGS count [3]: 0.4

YGFLTFGTEVSADVLM [SLC38A8 271-286 wt]
mean normalised NGS count [3]: 2.94

AVSKTEDVWVRIEDAP [APC 2650-2665 wt]
mean normalised NGS count [1, 7]: 0.00486

NLSLNEAFVKVPRDDK [FOXC1 123-138 wt]
mean normalised NGS count [1, 8]: 0.0123

TTVREERFEVLHGREA [TTN 909-924 wt]
mean normalised NGS count [1, 8]: 0.264 | mean normalised NGS count [4, 5]: 0.00648 | mean normalised NGS count [2, 9]: 0.841

NLLLNEAFVKVPRDDK [FOXC1 123-138 mut Q99958.S125L]
mean normalised NGS count [1, 5]: 0.0201

EEFQYIGESQGYDIME [MSH2 852-867 wt]
mean normalised NGS count [1, 7]: 0.0123

DADSDFEVLMKTAHGH [RYR2 1338-1353 wt]
mean normalised NGS count [1, 6]: 0.00876 | mean normalised NGS count [2, 9]: 0.432

MESGNASGGDDDWTHL [SQSTM1 326-341 mut Q13501.D329G]
mean normalised NGS count [1, 6]: 0.00476 | mean normalised NGS count [2, 9]: 0.197

PTLPDISDDKDEWQFL [BUB1 478-493 mut O43683.S492F]
mean normalised NGS count [1, 8]: 0.0224 | mean normalised NGS count [2, 9]: 0.452

ADIHDFEIIIHRVEWA [OCA2 665-680 mut Q04671.L674I]
mean normalised NGS count [1, 6]: 0.012 | mean normalised NGS count [4, 5]: 0.00841 | mean normalised NGS count [2, 7]: 0.912

GRARADESTYVLVAHS [IFIH1 821-836 wt]
mean normalised NGS count [1, 7]: 0.0409

IVEKHESGTTAWQLVN [TTN 29704-29719 mut Q8WZ42.R29708H]
mean normalised NGS count [1, 5]: 0.0487 | mean normalised NGS count [4, 9]: 0.0127

TTIREERFEVLHGREA [TTN 909-924 mut Q8WZ42.V911I]
mean normalised NGS count [1, 7]: 0.0116 | mean normalised NGS count [2, 5]: 0.00929

QSDKTPEELFHLLGAD [SLC2A1 474-489 mut P11166.P485L]
mean normalised NGS count [1, 8]: 0.13

KNDAGMQEAFTTLSVL [TTN 8495-8510 mut Q8WZ42.A8505T]
mean normalised NGS count [1, 5]: 0.035 | mean normalised NGS count [2, 9]: 1.83

SSQSERGLVEEEWVIV [ANK2 1580-1595 mut Q01484.R1582Q]
mean normalised NGS count [1, 8]: 0.182 | mean normalised NGS count [2, 9]: 1.09

NLLLNEAFVKVPRDDK [FOXC2 123-138 mut Q99958.S125L]
mean normalised NGS count [1, 5]: 0.0201

YDGWNQLNYITEELRN [SLC7A9 232-247 wt]
mean normalised NGS count [1, 5]: 0.0133

LFFGSNDYLWTHQAQV [NSD1 1797-1812 mut Q96L73.R1811Q]
mean normalised NGS count [3]: 1.44

QTTIQDDPEQFEVIKQ [ARFGEF2 627-642 mut Q9Y6D5.V630I]
mean normalised NGS count [1, 6]: 0.00257

TTVREEHFEVLHGREA [TTN 909-924 mut Q8WZ42.R915H]
mean normalised NGS count [1, 8]: 0.0197

DLLTFGQAQMNFPLGD [BCL11A 44-59 mut Q9H165.C48F]
mean normalised NGS count [3]: 49.2

QTTVQDDPEQFEVIKQ [ARFGEF2 627-642 wt]
mean normalised NGS count [1, 6]: 0.0172

DLLTFGQAQMNFPLGD [BCL11B 44-59 mut Q9H165.C48F]
mean normalised NGS count [3]: 49.2

MQESFVEMSSSSFMGI [TTN 34218-34233 wt]
mean normalised NGS count [1, 8]: 0.0606

GDDDWTHLSSKEVDPS [SQSTM1 334-349 wt]
mean normalised NGS count [1, 8]: 0.112 | mean normalised NGS count [2, 9]: 3.97

EDDQRQADQDWYMMDE [DHX38 316-331 mut Q92620.R324Q]
mean normalised NGS count [1, 7]: 0.0773

LLSDYSNFGQFELTTF [MSH2 279-294 mut P43246.D283Y]
mean normalised NGS count [3]: 0.74

YDGWNQLNYTTEELRN [SLC7A9 232-247 mut P82251.I241T]
mean normalised NGS count [1, 8]: 0.0435

YGFLTFGTEVSAAVLM [SLC38A8 271-286 mut A6NNN8.D283A]
mean normalised NGS count [3]: 0.0771

GTNQHFVMVEVHHPDS [WHRN 716-731 mut Q9P202.R728H]
mean normalised NGS count [1, 5]: 0.0113 | mean normalised NGS count [4, 9]: 0.121

LAHLDDYVHISLPQAT [TSC1 400-415 mut Q92574.S403L]
mean normalised NGS count [1, 8]: 0.00831 | mean normalised NGS count [2, 9]: 0.101

PFIYGDIPPGMVSEPL [SCN9A 60-75 wt]
mean normalised NGS count [3]: 0.127

EFTFVDETDQQAVPDV [KIAA1109 1863-1878 wt]
mean normalised NGS count [1, 6]: 0.0066 | mean normalised NGS count [4, 8]: 0.00869

GWASTADPLSNMVLTF [NDUFS4 113-128 wt]
mean normalised NGS count [3]: 10.3

DPLAGTVFVDFGFHLL [ABCB4 1087-1102 mut P21439.Q1100H]
mean normalised NGS count [3]: 0.482 | mean normalised NGS count [2, 7]: 0.0191

HDVGEFPVLFFGSNDY [NSD1 1789-1804 wt]
mean normalised NGS count [3]: 6.87

EEHFEVLHGREAKVTE [TTN 913-928 mut Q8WZ42.R915H]
mean normalised NGS count [1, 8]: 0.0167 | mean normalised NGS count [2, 9]: 0.0585

VNTEWEKLNLHSADWQ [DMD 2911-2926 wt]
mean normalised NGS count [1, 8]: 0.0141

LTFGTEVSADVLMSYP [SLC38A8 274-289 wt]
mean normalised NGS count [3]: 10.5

HEVSAEEEWSYLEEEE [TTN 10414-10429 mut Q8WZ42.S10425L]
mean normalised NGS count [1, 7]: 0.00522

WQFLDQNEDAFEAQFQ [BUB1 490-505 mut O43683.S492F]
mean normalised NGS count [1, 8]: 0.0545 | mean normalised NGS count [2, 7]: 0.00612

PPAPLAHLDDYVHISL [TSC1 396-411 mut Q92574.S403L]
mean normalised NGS count [1, 8]: 0.266 | mean normalised NGS count [4, 9]: 0.0423 | mean normalised NGS count [2, 5]: 0.885

EVTRHEVSAEEEWSYL [TTN 10410-10425 mut Q8WZ42.S10425L]
mean normalised NGS count [1, 5]: 0.0309 | mean normalised NGS count [2, 5]: 0.0759

ADGWNQLNYITEELRN [SLC7A9 232-247 mut P82251.Y232C]
mean normalised NGS count [1, 7]: 0.00779

EEFQYIGELQGYDIME [MSH2 852-867 mut P43246.S860L]
mean normalised NGS count [1, 8]: 0.0586 | mean normalised NGS count [4, 6]: 0.00335

SITGTTIREERFEVLH [TTN 905-920 mut Q8WZ42.V911I]
mean normalised NGS count [1, 8]: 0.627 | mean normalised NGS count [2, 8]: 0.0258

Reference: the supplement of paper PMC11369174, “Proteome-scale characterisation of motif-based interactome rewiring by disease mutations” (Molecular Systems Biology, 2024)
